Source: the supplement of paper PMC4604168 (melanoma cell lines)
The list shows a part of the results. Single values are uncertain, as repeats are few or missing.

Legend:
Assay in all cases: cell count relative to DMSO control; melanoma cells; higher = more viable cells
Conditions in all cases: library dose: low library concentration; 72 h
MZ2-MEL = test system: MZ2-MEL
MeWo = test system: MeWo
RPMI7951 = test system: RPMI7951
RVH-421 = test system: RVH-421
SkMel28 = test system: SkMel28
SkMel30 = test system: SkMel30
SkMel5 = test system: SkMel5
UACC257 = test system: UACC257
UACC62 = test system: UACC62
SkMel2 = test system: SkMel2
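Further: cell number obtained by counting DAPI-stained nuclei in high-throughput microscope images with image analysis software, screen run in 1,536-well plates.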

Structure (SMILES)	cell count (MZ2-MEL)	cell count (MeWo)	cell count (RPMI7951)	cell count (RVH-421)	cell count (SkMel28)	cell count (SkMel30)	cell count (SkMel5)	cell count (UACC257)	cell count (UACC62)	cell count (SkMel2)
CC1(C)NC(=O)N(c2ccc([N+](=O)[O-])c(C(F)(F)F)c2)C1=O [nilutamide] + O=C(O)C(=O)Nc1sc2c(c1C(=O)O)CCNC2 [TCS401] (first compound 1 µM, partner dose 1.66667 µM)	99.5%	94.2%	102%	89%	90.9%	91.3%	101%	75%	77.3%	
O=c1[nH]nc(Sc2ncc([N+](=O)[O-])s2)n1-c1ccc2c(c1)OCCO2 + C[C@@H](Oc1cc(-c2cnn(C3CCNCC3)c2)cnc1N)c1c(Cl)ccc(F)c1Cl [Crizotinib] (first compound 0.2 µM, partner dose 0.2 µM)	107%	92.9%	123%	89.1%	108%	101%			98.2%	95.8%
O=C(Nc1cccc(Cl)c1)Nc1ncc(CCNc2ncnc3ccsc23)s1 + O=C(Nc1ccccc1)c1cc([N+](=O)[O-])ccc1Cl [GW9662] (first compound 0.0008 µM, partner dose 2 µM)	94.5%	91.2%	111%	104%	86.3%	111%	88.1%	97.6%	88.5%	
O=c1[nH]nc(Sc2ncc([N+](=O)[O-])s2)n1-c1ccc2c(c1)OCCO2 + Cc1nc(Nc2ncc(C(=O)Nc3c(C)cccc3Cl)s2)cc(N2CCN(CCO)CC2)n1 [dasatanib] (first compound 0.2 µM, partner dose 0.004 µM)	83.2%	86.3%	78.5%	98.2%	72.8%	108%			87.7%	93.7%
O=c1[nH]nc(Sc2ncc([N+](=O)[O-])s2)n1-c1ccc2c(c1)OCCO2 + C=C(c1ccc(C(=O)O)cc1)c1cc2c(cc1C)C(C)(C)CCC2(C)C [Bexarotene] (first compound 0.2 µM, partner dose 2 µM)	84.8%	86.7%	82.7%	109%	81.1%	105%			100%	90.2%
O=c1[nH]nc(Sc2ncc([N+](=O)[O-])s2)n1-c1ccc2c(c1)OCCO2 + Cn1cnc2c(F)c(Nc3ccc(Br)cc3Cl)c(C(=O)NOCCO)cc21 [selumetinib] (first compound 0.2 µM, partner dose 0.015 µM)	113%	94%	83.6%	89.4%	99.2%	75%			77.6%	78.3%
O=C(Nc1cccc(Cl)c1)Nc1ncc(CCNc2ncnc3ccsc23)s1 + Cc1cc([N+](=O)[O-])ccc1NS(=O)(=O)c1cc(Cl)ccc1Cl [FH535] (first compound 0.0008 µM, partner dose 1 µM)	98%	87.1%	109%	69.4%	88.3%	91.5%	76.4%	72.3%	94.5%	
C[C@@H]1CCN(C(=O)CC#N)C[C@@H]1N(C)c1ncnc2[nH]ccc12 + COc1ccc2c(c1)CCC1C2CCC2(C)C(NCCCCCCN3C(=O)C=CC3=O)CCC12 [U73122] (first compound 1 µM, partner dose 0.4 µM)	103%	91.2%	97.4%	100%	89.5%	97.2%	91.9%	98.8%	89.9%	
COc1cc(Nc2ncc(F)c(Nc3ccc4c(n3)NC(=O)C(C)(C)O4)n2)cc(OC)c1OC [Tamatinib] + COc1cc(N2CCC(N3CCN(C)CC3)CC2)ccc1Nc1ncc(Cl)c(Nc2ccccc2S(=O)(=O)C(C)C)n1 [NVP-TAE684] (first compound 0.4 µM, partner dose 0.08 µM)	94.5%	87.4%	66.2%	80.9%	76%	85.5%	69.4%	75%	102%	
CC1(C)NC(=O)N(c2ccc([N+](=O)[O-])c(C(F)(F)F)c2)C1=O [nilutamide] + CCc1ccc(CCOc2ccc(CC3SC(=O)NC3=O)cc2)nc1 [pioglitazone] (first compound 1 µM, partner dose 2 µM)	97%	93.9%	101%	102%	83.1%	118%	101%	80.4%	99.7%	
O=C(O)c1ccc(-c2c[nH]c3ncc(-c4ccccc4)cc23)cc1C1CCCC1 + O=c1cc(-c2cccc3c2Sc2ccccc2S3)oc(N2CCOCC2)c1 [KU55933] (first compound 0.16 µM, partner dose 1 µM)	95.4%	99.1%	93.5%	108%	91.4%	78.6%	96.7%	104%	92%	
